According to the supplement of paper PMC10369915:
Some of the results follow. Rule as the data show it: active = 3.2 or more and inactive = the rest. Only a few entries rise above the background.

biological target: SHP2 C-SH2 domain E139D; experiment: enrichment score (SH2-bound / input frequency) (ratio); bacterial display of known human phosphotyrosine sites (pTyr-Var adds point mutants) read by sequencing; higher = stronger binding; tyrosines were phosphorylated by kinases first; details: peptide library: pTyr-Var
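Also: displayed peptides selected on beads carrying the immobilized SH2 domain, with library peptides lacking any tyrosine serving as negative controls.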

Enrichment score, inactive:
DLRTGYSVPFG [TGM1_Y370_Y365D_YF] 1
HHTNEYEFDEL [TGM1_Y134_D132N_YF] 0.369
RRGMPYGGLGD [TGM1_Y312_R315L] 0.385
KSVEEYANCHL [TF_Y593_P589S] 0.822
FLEEEYVKAVG [TF_Y674_G671E_YF] 0.759
HSSPVYVGRVV [TGM2_Y219_R214H] 0.958
FLGEEYVKAVG [TF_Y674_YF] 0.867
EILLSDLRTGF [TGM1_Y365_Y365D_YF] 1.13
FRVAGYKTQGG [TIA1_Y383_E384K_YF] 0.794
TDEFEYDELIV [TGM1_Y136_YF] 0.321
TNDMRYPMKSE [TGDS_Y302] 0.47
PEVSGYCHCAD [TG_Y234] 1.09
HEPKGYNANFC [TGFB2_Y341] 0.695
HDRNTYEKFLE [TF_Y666_G671E_YF] 0.826
GCKNHYDKDKP [THAP1_Y14_R13H] 1.31
NTYEKYLGEEY [TF_Y669] 0.887
DWRQEYVLNES [TGM1_Y267] 0.647
GCKKRYDKDKP [THAP1_Y14_N12K] 0.285
RSSPVYVGRVV [TGM2_Y219] 0.905

biological target: SHP2 C-SH2 domain wild-type; experiment: as above; details: peptide library: pTyr-Var

Enrichment score, inactive:
DLRTGYSVPFG [TGM1_Y370_Y365D_YF] 1.19
HHTNEYEFDEL [TGM1_Y134_D132N_YF] 0.454
RRGMPYGGLGD [TGM1_Y312_R315L] 0.367
KSVEEYANCHL [TF_Y593_P589S] 0.864
FLEEEYVKAVG [TF_Y674_G671E_YF] 0.791
HSSPVYVGRVV [TGM2_Y219_R214H] 0.886
FLGEEYVKAVG [TF_Y674_YF] 0.839
EILLSDLRTGF [TGM1_Y365_Y365D_YF] 0.828
FRVAGYKTQGG [TIA1_Y383_E384K_YF] 0.681
TDEFEYDELIV [TGM1_Y136_YF] 0.31
TNDMRYPMKSE [TGDS_Y302] 0.556
PEVSGYCHCAD [TG_Y234] 1.28
HEPKGYNANFC [TGFB2_Y341] 0.574
HDRNTYEKFLE [TF_Y666_G671E_YF] 0.609
GCKNHYDKDKP [THAP1_Y14_R13H] 1.32
NTYEKYLGEEY [TF_Y669] 0.636
DWRQEYVLNES [TGM1_Y267] 0.616
GCKKRYDKDKP [THAP1_Y14_N12K] 0.243
RSSPVYVGRVV [TGM2_Y219] 0.742

biological target: SHP2 N-SH2 domain L43F; experiment: as above; details: peptide library: pTyr-Var

Enrichment score, inactive:
DLRTGYSVPFG [TGM1_Y370_Y365D_YF] 1.71
HHTNEYEFDEL [TGM1_Y134_D132N_YF] 0.231
RRGMPYGGLGD [TGM1_Y312_R315L] 0.295
KSVEEYANCHL [TF_Y593_P589S] 0.887
FLEEEYVKAVG [TF_Y674_G671E_YF] 0.965
HSSPVYVGRVV [TGM2_Y219_R214H] 0.758
FLGEEYVKAVG [TF_Y674_YF] 0.887
EILLSDLRTGF [TGM1_Y365_Y365D_YF] 1.07
FRVAGYKTQGG [TIA1_Y383_E384K_YF] 0.625
TDEFEYDELIV [TGM1_Y136_YF] 0.758
TNDMRYPMKSE [TGDS_Y302] 0.692
PEVSGYCHCAD [TG_Y234] 0.884
HEPKGYNANFC [TGFB2_Y341] 0.67
HDRNTYEKFLE [TF_Y666_G671E_YF] 0.758
GCKNHYDKDKP [THAP1_Y14_R13H] 1.35
NTYEKYLGEEY [TF_Y669] 0.786
DWRQEYVLNES [TGM1_Y267] 0.658
GCKKRYDKDKP [THAP1_Y14_N12K] 0.347
RSSPVYVGRVV [TGM2_Y219] 1.07

biological target: SHP2 N-SH2 domain T42A; experiment: as above; details: peptide library: pTyr-Var

Enrichment score, inactive:
DLRTGYSVPFG [TGM1_Y370_Y365D_YF] 1.43
HHTNEYEFDEL [TGM1_Y134_D132N_YF] 0.566
RRGMPYGGLGD [TGM1_Y312_R315L] 0.283
KSVEEYANCHL [TF_Y593_P589S] 0.663
FLEEEYVKAVG [TF_Y674_G671E_YF] 0.71
HSSPVYVGRVV [TGM2_Y219_R214H] 0.675
FLGEEYVKAVG [TF_Y674_YF] 0.786
EILLSDLRTGF [TGM1_Y365_Y365D_YF] 0.939
FRVAGYKTQGG [TIA1_Y383_E384K_YF] 0.603
TDEFEYDELIV [TGM1_Y136_YF] 1.13
TNDMRYPMKSE [TGDS_Y302] 0.482
PEVSGYCHCAD [TG_Y234] 1.1
HEPKGYNANFC [TGFB2_Y341] 0.422
HDRNTYEKFLE [TF_Y666_G671E_YF] 0.777
GCKNHYDKDKP [THAP1_Y14_R13H] 1.25
NTYEKYLGEEY [TF_Y669] 0.666
DWRQEYVLNES [TGM1_Y267] 0.542
GCKKRYDKDKP [THAP1_Y14_N12K] 0.376
RSSPVYVGRVV [TGM2_Y219] 0.655

biological target: SHP2 N-SH2 domain T52S; experiment: as above; details: peptide library: pTyr-Var

Enrichment score, inactive:
DLRTGYSVPFG [TGM1_Y370_Y365D_YF] 1.2
HHTNEYEFDEL [TGM1_Y134_D132N_YF] 0.351
RRGMPYGGLGD [TGM1_Y312_R315L] 0.379
KSVEEYANCHL [TF_Y593_P589S] 0.763
FLEEEYVKAVG [TF_Y674_G671E_YF] 0.932
HSSPVYVGRVV [TGM2_Y219_R214H] 0.494
FLGEEYVKAVG [TF_Y674_YF] 0.819
EILLSDLRTGF [TGM1_Y365_Y365D_YF] 1.09
FRVAGYKTQGG [TIA1_Y383_E384K_YF] 0.506
TDEFEYDELIV [TGM1_Y136_YF] 0.478
TNDMRYPMKSE [TGDS_Y302] 0.596
PEVSGYCHCAD [TG_Y234] 1.1
HEPKGYNANFC [TGFB2_Y341] 0.549
HDRNTYEKFLE [TF_Y666_G671E_YF] 0.62
GCKNHYDKDKP [THAP1_Y14_R13H] 1.26
NTYEKYLGEEY [TF_Y669] 0.807
DWRQEYVLNES [TGM1_Y267] 0.657
GCKKRYDKDKP [THAP1_Y14_N12K] 0.367
RSSPVYVGRVV [TGM2_Y219] 0.764

biological target: SHP2 N-SH2 domain wild-type; experiment: as above; details: peptide library: pTyr-Var

Enrichment score, inactive:
DLRTGYSVPFG [TGM1_Y370_Y365D_YF] 0.779
HHTNEYEFDEL [TGM1_Y134_D132N_YF] 0.534
RRGMPYGGLGD [TGM1_Y312_R315L] 0.391
KSVEEYANCHL [TF_Y593_P589S] 0.954
FLEEEYVKAVG [TF_Y674_G671E_YF] 0.969
HSSPVYVGRVV [TGM2_Y219_R214H] 0.899
FLGEEYVKAVG [TF_Y674_YF] 0.935
EILLSDLRTGF [TGM1_Y365_Y365D_YF] 1.09
FRVAGYKTQGG [TIA1_Y383_E384K_YF] 0.661
TDEFEYDELIV [TGM1_Y136_YF] 0.342
TNDMRYPMKSE [TGDS_Y302] 0.548
PEVSGYCHCAD [TG_Y234] 1.18
HEPKGYNANFC [TGFB2_Y341] 0.795
HDRNTYEKFLE [TF_Y666_G671E_YF] 0.911
GCKNHYDKDKP [THAP1_Y14_R13H] 1.49
NTYEKYLGEEY [TF_Y669] 1.05
DWRQEYVLNES [TGM1_Y267] 0.602
GCKKRYDKDKP [THAP1_Y14_N12K] 0.353
RSSPVYVGRVV [TGM2_Y219] 0.862
